In publication PMC2654154, “Molecular Basis of Filamin A-FilGAP Interaction and Its Impairment in Congenital Disorders Associated with Filamin A Mutations” (PLoS ONE, 2009):
Results are given in words; binding and its absence hold for the method and conditions named. For part of these data: In cells and extracts the contact can be indirect. Some entries that bind do so weakly or less than the wild type. For part of these data: Tags and fused reporters may be left off the sequences shown.

Protein sequences, listed by entry. Tags and fused reporters are not part of them. Lines headed by an entry give the natural chain unless they say otherwise; changes in a name come on top. Chains listed by the source or under a name are the forms on record and can include a tag or linker. Residues count along the entry.
UniProt P21333: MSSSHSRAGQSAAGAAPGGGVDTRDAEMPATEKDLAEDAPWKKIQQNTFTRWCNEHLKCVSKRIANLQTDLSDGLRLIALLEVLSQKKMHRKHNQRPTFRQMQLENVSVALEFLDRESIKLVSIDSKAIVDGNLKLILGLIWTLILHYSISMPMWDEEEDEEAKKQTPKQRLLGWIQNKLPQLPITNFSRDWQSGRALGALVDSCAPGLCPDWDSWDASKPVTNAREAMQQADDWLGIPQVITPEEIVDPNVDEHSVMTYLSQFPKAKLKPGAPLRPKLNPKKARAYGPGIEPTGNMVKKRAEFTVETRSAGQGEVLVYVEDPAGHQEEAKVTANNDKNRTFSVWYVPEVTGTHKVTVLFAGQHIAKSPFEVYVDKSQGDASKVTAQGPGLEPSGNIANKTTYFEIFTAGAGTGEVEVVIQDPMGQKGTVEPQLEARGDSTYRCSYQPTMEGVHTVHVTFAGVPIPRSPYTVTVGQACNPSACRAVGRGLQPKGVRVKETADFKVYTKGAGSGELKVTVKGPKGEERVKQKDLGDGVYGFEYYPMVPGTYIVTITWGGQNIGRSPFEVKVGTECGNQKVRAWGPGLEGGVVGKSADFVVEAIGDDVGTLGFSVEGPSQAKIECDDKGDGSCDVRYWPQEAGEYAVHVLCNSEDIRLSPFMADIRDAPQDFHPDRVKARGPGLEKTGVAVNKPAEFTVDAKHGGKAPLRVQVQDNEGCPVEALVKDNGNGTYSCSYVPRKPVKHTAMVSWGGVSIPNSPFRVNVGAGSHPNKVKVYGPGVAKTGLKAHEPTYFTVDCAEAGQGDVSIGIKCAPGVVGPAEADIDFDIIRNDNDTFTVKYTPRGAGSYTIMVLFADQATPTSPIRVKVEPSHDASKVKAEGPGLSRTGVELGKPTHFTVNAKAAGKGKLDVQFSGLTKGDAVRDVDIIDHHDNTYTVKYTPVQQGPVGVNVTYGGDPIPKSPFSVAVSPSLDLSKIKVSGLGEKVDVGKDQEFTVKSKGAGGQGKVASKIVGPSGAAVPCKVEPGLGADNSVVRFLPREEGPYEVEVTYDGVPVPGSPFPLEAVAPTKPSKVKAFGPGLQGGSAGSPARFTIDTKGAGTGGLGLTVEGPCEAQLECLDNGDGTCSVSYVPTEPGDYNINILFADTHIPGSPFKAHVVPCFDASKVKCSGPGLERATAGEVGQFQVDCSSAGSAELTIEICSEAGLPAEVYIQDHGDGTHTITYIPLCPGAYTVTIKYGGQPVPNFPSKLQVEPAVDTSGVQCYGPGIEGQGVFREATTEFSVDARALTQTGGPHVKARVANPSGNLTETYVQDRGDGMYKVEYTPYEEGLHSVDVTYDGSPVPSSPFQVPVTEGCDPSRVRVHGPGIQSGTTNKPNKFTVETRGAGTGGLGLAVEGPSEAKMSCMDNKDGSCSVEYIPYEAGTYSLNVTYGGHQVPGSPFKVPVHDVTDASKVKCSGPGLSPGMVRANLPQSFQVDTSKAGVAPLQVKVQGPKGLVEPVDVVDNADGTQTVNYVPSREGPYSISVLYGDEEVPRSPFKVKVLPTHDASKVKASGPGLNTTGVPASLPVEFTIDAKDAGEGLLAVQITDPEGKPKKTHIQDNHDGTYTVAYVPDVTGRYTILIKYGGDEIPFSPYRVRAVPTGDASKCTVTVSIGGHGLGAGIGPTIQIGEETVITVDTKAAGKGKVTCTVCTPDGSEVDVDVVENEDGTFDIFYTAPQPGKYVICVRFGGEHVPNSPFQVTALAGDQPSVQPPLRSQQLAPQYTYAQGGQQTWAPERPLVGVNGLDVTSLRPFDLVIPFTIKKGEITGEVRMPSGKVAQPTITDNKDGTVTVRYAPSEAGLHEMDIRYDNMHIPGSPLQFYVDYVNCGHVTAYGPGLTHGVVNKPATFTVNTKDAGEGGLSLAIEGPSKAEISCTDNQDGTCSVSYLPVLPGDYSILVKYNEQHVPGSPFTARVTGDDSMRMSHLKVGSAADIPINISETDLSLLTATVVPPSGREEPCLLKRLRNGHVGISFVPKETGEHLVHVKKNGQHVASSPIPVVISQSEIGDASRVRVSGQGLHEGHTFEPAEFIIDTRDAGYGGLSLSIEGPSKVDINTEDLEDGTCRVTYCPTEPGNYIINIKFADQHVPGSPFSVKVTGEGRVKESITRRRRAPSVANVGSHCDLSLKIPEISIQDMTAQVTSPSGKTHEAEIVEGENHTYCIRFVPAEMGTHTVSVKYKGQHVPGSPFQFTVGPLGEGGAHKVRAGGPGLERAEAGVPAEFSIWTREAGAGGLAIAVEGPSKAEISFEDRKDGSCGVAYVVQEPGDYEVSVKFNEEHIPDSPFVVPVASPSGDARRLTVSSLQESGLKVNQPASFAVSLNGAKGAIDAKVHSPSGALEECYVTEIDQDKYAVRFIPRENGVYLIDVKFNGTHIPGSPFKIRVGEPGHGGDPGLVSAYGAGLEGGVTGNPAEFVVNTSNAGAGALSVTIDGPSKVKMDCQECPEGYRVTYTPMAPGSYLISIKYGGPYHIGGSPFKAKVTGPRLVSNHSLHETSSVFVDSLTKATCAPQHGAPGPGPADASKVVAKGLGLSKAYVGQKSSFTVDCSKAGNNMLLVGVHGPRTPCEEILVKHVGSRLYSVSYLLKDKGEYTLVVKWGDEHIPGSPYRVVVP
IgFLNa23 (23rd Ig repeat of FLNa): residues 2427-2522 of P21333
FLAG-FLNa Δ7 (deletion of L2439-G2445, disease-related) (P21333, form named): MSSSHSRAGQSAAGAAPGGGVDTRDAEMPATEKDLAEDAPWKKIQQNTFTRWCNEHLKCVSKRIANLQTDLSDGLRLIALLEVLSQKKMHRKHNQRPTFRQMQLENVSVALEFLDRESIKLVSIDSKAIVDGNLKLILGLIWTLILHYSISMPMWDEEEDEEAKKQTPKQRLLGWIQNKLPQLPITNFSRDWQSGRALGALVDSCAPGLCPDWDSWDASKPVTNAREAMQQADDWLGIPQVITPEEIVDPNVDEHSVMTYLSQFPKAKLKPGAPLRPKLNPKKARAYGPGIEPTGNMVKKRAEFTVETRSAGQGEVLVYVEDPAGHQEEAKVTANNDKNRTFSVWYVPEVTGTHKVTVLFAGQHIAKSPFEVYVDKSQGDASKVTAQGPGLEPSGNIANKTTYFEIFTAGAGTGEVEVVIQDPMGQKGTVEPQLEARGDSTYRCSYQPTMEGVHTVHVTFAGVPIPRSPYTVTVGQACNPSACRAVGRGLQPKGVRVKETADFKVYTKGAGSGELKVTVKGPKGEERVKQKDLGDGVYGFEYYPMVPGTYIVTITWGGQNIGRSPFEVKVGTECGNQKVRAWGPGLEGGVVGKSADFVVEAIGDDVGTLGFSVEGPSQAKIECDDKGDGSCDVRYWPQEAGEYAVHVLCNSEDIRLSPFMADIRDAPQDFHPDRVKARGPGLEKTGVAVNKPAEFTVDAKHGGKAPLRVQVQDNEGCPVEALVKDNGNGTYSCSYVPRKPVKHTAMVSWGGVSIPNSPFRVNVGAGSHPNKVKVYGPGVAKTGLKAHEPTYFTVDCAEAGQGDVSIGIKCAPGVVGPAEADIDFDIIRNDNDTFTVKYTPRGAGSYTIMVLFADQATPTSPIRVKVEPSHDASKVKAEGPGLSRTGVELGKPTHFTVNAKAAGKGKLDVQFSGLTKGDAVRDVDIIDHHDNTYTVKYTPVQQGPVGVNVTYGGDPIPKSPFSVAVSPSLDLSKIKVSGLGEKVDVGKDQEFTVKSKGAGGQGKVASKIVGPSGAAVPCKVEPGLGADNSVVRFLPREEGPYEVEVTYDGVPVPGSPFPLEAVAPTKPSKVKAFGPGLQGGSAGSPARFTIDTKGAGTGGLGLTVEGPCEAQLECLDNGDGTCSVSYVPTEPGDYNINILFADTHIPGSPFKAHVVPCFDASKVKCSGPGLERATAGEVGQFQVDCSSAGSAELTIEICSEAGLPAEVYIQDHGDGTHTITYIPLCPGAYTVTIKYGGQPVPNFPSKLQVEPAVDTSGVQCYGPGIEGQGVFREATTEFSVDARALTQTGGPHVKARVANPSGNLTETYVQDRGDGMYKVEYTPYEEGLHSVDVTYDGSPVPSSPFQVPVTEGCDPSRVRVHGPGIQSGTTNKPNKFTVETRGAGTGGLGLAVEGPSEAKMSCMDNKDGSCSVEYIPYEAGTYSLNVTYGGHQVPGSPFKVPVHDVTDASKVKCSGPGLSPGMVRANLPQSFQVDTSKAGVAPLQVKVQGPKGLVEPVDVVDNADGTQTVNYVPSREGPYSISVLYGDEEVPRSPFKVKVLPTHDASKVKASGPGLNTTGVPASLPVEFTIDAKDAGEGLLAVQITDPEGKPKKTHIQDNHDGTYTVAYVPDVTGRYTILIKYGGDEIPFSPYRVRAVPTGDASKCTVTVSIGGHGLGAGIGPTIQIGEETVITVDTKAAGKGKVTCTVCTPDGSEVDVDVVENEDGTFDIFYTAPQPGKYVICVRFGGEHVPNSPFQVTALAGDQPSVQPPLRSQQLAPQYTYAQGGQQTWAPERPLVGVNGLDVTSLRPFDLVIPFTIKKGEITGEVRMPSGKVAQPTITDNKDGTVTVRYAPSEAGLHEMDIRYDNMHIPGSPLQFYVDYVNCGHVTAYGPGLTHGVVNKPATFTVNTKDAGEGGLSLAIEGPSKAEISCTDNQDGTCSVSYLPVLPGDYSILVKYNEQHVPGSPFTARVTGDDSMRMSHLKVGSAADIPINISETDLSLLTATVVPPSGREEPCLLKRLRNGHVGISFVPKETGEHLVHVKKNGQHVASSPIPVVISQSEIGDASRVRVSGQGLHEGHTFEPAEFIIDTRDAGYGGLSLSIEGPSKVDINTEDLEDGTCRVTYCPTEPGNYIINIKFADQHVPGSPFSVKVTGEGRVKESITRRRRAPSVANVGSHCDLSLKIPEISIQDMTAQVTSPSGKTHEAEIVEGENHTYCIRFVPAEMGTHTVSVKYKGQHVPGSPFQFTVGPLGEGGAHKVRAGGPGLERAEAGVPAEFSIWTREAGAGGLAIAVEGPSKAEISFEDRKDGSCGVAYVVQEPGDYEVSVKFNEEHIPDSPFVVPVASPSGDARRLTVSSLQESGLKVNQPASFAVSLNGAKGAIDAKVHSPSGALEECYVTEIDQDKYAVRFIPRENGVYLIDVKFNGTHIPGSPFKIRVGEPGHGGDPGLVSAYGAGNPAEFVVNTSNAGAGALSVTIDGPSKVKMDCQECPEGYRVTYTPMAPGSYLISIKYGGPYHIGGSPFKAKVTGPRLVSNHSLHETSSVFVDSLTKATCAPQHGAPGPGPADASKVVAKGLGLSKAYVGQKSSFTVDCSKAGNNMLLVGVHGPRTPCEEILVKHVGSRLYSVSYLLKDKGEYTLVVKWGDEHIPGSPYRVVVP

What was measured:
[1] = biological target: T1, MBP-His-FilGAP 649–748 (human) (UniProt Q8N264); assay: pull-down; amylose resin coated with various concentrations of MBP-FilGAP 649–748; FLNa or its truncates in binding buffer, 1 h, 25°C; CBB or silver staining or immunoblot; both purified
T1 sequence: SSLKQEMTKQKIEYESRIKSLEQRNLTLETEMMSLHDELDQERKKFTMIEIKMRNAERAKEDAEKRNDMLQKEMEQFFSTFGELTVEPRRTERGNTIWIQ

[2] = biological target: IgFLNa23 (23rd Ig repeat of FLNa) (human) (UniProt P21333); assay: NMR titration; 15N-HSQC of 0.5 mM 13C15N-IgFLNa23 with FilGAP14 peptide added (up to 6.6-fold excess); 20 mM sodium phosphate pH 6.8, 150 mM NaCl, 25°C; both purified
[3] = biological target: FLAG-tagged full-length FLNa (filamin A), wild type (human) (UniProt P21333); assay: pull-down; GST-His- or MBP-His-FilGAP constructs (various concentrations) with 25 nM FLAG-FLNa on FLAG-specific mAb M2 agarose; 50 mM Tris-HCl, 150 mM NaCl, 0.1% Triton X-100, 0.1 mM EGTA, pH 7.4, 1 h, 25°C; immunoblot for GST or MBP; both purified
[4] = biological target: FLNa M2474E expressed from pREP4-FLNa in M2 cells (human) (UniProt P21333); assay: co-IP; M2 cells co-transfected with pREP4-FLNa and pCDNA5-HA-FilGAP; lysate (1% Triton X-100) precipitated with antibodies to FLNa, blot for HA
[5] = biological target: FLNa, wild type, expressed from pREP4-FLNa in M2 cells (human) (UniProt P21333); assay: as above
[6] = biological target: FLAG-FLNa Δ7 (deletion of L2439-G2445, disease-related) (human) (UniProt P21333); assay: pull-down; full-length FilGAP or His-FilGAP lacking 649–725 (50 nM in Figure 1C) mixed with increasing amounts of wild-type or mutant FLAG-FLNa, precipitated with FLAG-specific mAb on agarose; immunoblot for FilGAP or the His tag; both purified
[7] = biological target: FLAG-FLNa Δ3 (7447del9, deletion of Y2483-V2485, disease-related) (human) (UniProt P21333); assay: as above
FLAG-FLNa M2474E (human) [8] = biological target: FLAG-FLNa M2474E (human) (UniProt P21333); assay: as above
FLAG-FLNa M2474E (human) [9] = biological target: FLAG-FLNa M2474E (human) (UniProt P21333); assay: electron microscopy (rotary shadowing); FLNa and FilGAP mixed at 1 FLNa : 20 FilGAP for 1 h at room temperature, diluted in glycerol, sprayed onto mica; both purified
[10] = biological target: full-length FLNb (filamin B) (UniProt O75369); assay: co-IP; in vitro immunoprecipitation: purified FilGAP (50 nM) with increasing amounts of FLNa or FLNb, mAbs to FLNa or FLNb on GammaBind G-Sepharose, overnight, 4°C; both purified
[11] = biological target: His-tag FilGAP lacking residues 649–725 (human) (UniProt Q8N264); assay: SEC; Superose 6 10/300 GL, 20 mM Tris-HCl pH 7.4, 150 mM NaCl, 0.5 mM EGTA, 4°C; size from calibration with standards; both purified
[12] = biological target: MBP-His-FilGAPC32 (717–748) (human) (UniProt Q8N264); assay: as above

FLAG-tagged full-length FLNa (filamin A), wild type (from UniProt P21333 1-2647)
binding [1]: binds

FLAG-FLNa M2474E (from UniProt P21333 1-2647)
binding [1]: no binding

EQFFSTFGELTVEP [FilGAP14 peptide]
binding [2]: binds weakly

B1: GST-His-FilGAP 649–748 (C-terminal 100 residues) (domain or fragment, human, UniProt Q8N264 649-748, looked up)
chain: SSLKQEMTKQKIEYESRIKSLEQRNLTLETEMMSLHDELDQERKKFTMIEIKMRNAERAKEDAEKRNDMLQKEMEQFFSTFGELTVEPRRTERGNTIWIQ
notes: FilGAP, human, C-terminal 100 residues; also called GST-FilGAP fragment; source: E. coli (pGEX-4T-3-HT), purified
binding [3]: binds

B2: HA-tagged FilGAP, wild type, in M2 cells (protein, UniProt Q8N264 1-748)
chain: MEENNDSTENPQQGQGRQNAIKCGWLRKQGGFVKTWHTRWFVLKGDQLYYFKDEDETKPLGTIFLPGNKVSEHPCNEENPGKFLFEVVPGGDRDRMTANHESYLLMASTQNDMEDWVKSIRRVIWGPFGGGIFGQKLEDTVRYEKRYGNRLAPMLVEQCVDFIRQRGLKEEGLFRLPGQANLVKELQDAFDCGEKPSFDSNTDVHTVASLLKLYLRELPEPVIPYAKYEDFLSCAKLLSKEEEAGVKELAKQVKSLPVVNYNLLKYICRFLDEVQSYSGVNKMSVQNLATVFGPNILRPKVEDPLTIMEGTVVVQQLMSVMISKHDCLFPKDAELQSKPQDGVSNNNEIQKKATMGQLQNKENNNTKDSPSRQCSWDKSESPQRSSMNNGSPTALSGSKTNSPKNSVHKLDVSRSPPLMVKKNPAFNKGSGIVTNGSFSSSNAEGLEKTQTTPNGSLQARRSSSLKVSGTKMGTHSVQNGTVRMGILNSDTLGNPTNVRNMSWLPNGYVTLRDNKQKEQAGELGQHNRLSTYDNVHQQFSMMNLDDKQSIDSATWSTSSCEISLPENSNSCRSSTTTCPEQDFFGGNFEDPVLDGPPQDDLSHPRDYESKSDHRSVGGRSSRATSSSDNSETFVGNSSSNHSALHSLVSSLKQEMTKQKIEYESRIKSLEQRNLTLETEMMSLHDELDQERKKFTMIEIKMRNAERAKEDAEKRNDMLQKEMEQFFSTFGELTVEPRRTERGNTIWIQ
binding [4]: no binding
binding [5]: binds

B3: GST-His-FilGAP 649–729 (domain or fragment, UniProt Q8N264 649-729)
chain: SSLKQEMTKQKIEYESRIKSLEQRNLTLETEMMSLHDELDQERKKFTMIEIKMRNAERAKEDAEKRNDMLQKEMEQFFSTF
binding [3]: no binding

B4: full-length FilGAP, purified from Sf9 insect cells (natural protein, human, UniProt Q8N264 1-748, looked up)
chain: MEENNDSTENPQQGQGRQNAIKCGWLRKQGGFVKTWHTRWFVLKGDQLYYFKDEDETKPLGTIFLPGNKVSEHPCNEENPGKFLFEVVPGGDRDRMTANHESYLLMASTQNDMEDWVKSIRRVIWGPFGGGIFGQKLEDTVRYEKRYGNRLAPMLVEQCVDFIRQRGLKEEGLFRLPGQANLVKELQDAFDCGEKPSFDSNTDVHTVASLLKLYLRELPEPVIPYAKYEDFLSCAKLLSKEEEAGVKELAKQVKSLPVVNYNLLKYICRFLDEVQSYSGVNKMSVQNLATVFGPNILRPKVEDPLTIMEGTVVVQQLMSVMISKHDCLFPKDAELQSKPQDGVSNNNEIQKKATMGQLQNKENNNTKDSPSRQCSWDKSESPQRSSMNNGSPTALSGSKTNSPKNSVHKLDVSRSPPLMVKKNPAFNKGSGIVTNGSFSSSNAEGLEKTQTTPNGSLQARRSSSLKVSGTKMGTHSVQNGTVRMGILNSDTLGNPTNVRNMSWLPNGYVTLRDNKQKEQAGELGQHNRLSTYDNVHQQFSMMNLDDKQSIDSATWSTSSCEISLPENSNSCRSSTTTCPEQDFFGGNFEDPVLDGPPQDDLSHPRDYESKSDHRSVGGRSSRATSSSDNSETFVGNSSSNHSALHSLVSSLKQEMTKQKIEYESRIKSLEQRNLTLETEMMSLHDELDQERKKFTMIEIKMRNAERAKEDAEKRNDMLQKEMEQFFSTFGELTVEPRRTERGNTIWIQ
notes: FilGAP, human, full length; Tag-free FilGAP was prepared from His-FilGAP with TEV protease; also called Purified FilGAP; source: Sf9 cells, purified (Ni-NTA)
binding [6]: no binding
binding [7]: no binding
binding (FLAG-FLNa M2474E (human) [8]): no binding
binding (FLAG-FLNa M2474E (human) [9]): no binding
binding [10]: no binding (tested: 50 nM FilGAP)

B5: HA-tagged FilGAP V734Y, in M2 cells (protein, UniProt Q8N264 1-748)
chain: MEENNDSTENPQQGQGRQNAIKCGWLRKQGGFVKTWHTRWFVLKGDQLYYFKDEDETKPLGTIFLPGNKVSEHPCNEENPGKFLFEVVPGGDRDRMTANHESYLLMASTQNDMEDWVKSIRRVIWGPFGGGIFGQKLEDTVRYEKRYGNRLAPMLVEQCVDFIRQRGLKEEGLFRLPGQANLVKELQDAFDCGEKPSFDSNTDVHTVASLLKLYLRELPEPVIPYAKYEDFLSCAKLLSKEEEAGVKELAKQVKSLPVVNYNLLKYICRFLDEVQSYSGVNKMSVQNLATVFGPNILRPKVEDPLTIMEGTVVVQQLMSVMISKHDCLFPKDAELQSKPQDGVSNNNEIQKKATMGQLQNKENNNTKDSPSRQCSWDKSESPQRSSMNNGSPTALSGSKTNSPKNSVHKLDVSRSPPLMVKKNPAFNKGSGIVTNGSFSSSNAEGLEKTQTTPNGSLQARRSSSLKVSGTKMGTHSVQNGTVRMGILNSDTLGNPTNVRNMSWLPNGYVTLRDNKQKEQAGELGQHNRLSTYDNVHQQFSMMNLDDKQSIDSATWSTSSCEISLPENSNSCRSSTTTCPEQDFFGGNFEDPVLDGPPQDDLSHPRDYESKSDHRSVGGRSSRATSSSDNSETFVGNSSSNHSALHSLVSSLKQEMTKQKIEYESRIKSLEQRNLTLETEMMSLHDELDQERKKFTMIEIKMRNAERAKEDAEKRNDMLQKEMEQFFSTFGELTYEPRRTERGNTIWIQ
binding [5]: no binding

B6: His-tag FilGAP lacking residues 649–725 (protein, UniProt Q8N264)
chain: MEENNDSTENPQQGQGRQNAIKCGWLRKQGGFVKTWHTRWFVLKGDQLYYFKDEDETKPLGTIFLPGNKVSEHPCNEENPGKFLFEVVPGGDRDRMTANHESYLLMASTQNDMEDWVKSIRRVIWGPFGGGIFGQKLEDTVRYEKRYGNRLAPMLVEQCVDFIRQRGLKEEGLFRLPGQANLVKELQDAFDCGEKPSFDSNTDVHTVASLLKLYLRELPEPVIPYAKYEDFLSCAKLLSKEEEAGVKELAKQVKSLPVVNYNLLKYICRFLDEVQSYSGVNKMSVQNLATVFGPNILRPKVEDPLTIMEGTVVVQQLMSVMISKHDCLFPKDAELQSKPQDGVSNNNEIQKKATMGQLQNKENNNTKDSPSRQCSWDKSESPQRSSMNNGSPTALSGSKTNSPKNSVHKLDVSRSPPLMVKKNPAFNKGSGIVTNGSFSSSNAEGLEKTQTTPNGSLQARRSSSLKVSGTKMGTHSVQNGTVRMGILNSDTLGNPTNVRNMSWLPNGYVTLRDNKQKEQAGELGQHNRLSTYDNVHQQFSMMNLDDKQSIDSATWSTSSCEISLPENSNSCRSSTTTCPEQDFFGGNFEDPVLDGPPQDDLSHPRDYESKSDHRSVGGRSSRATSSSDNSETFVGNSSSNHSALHSLVFSTFGELTVEPRRTERGNTIWIQ
binding [11]: no binding

MLQKEMEQFFSTFGELTVEPRRTERGNTIWIQ (domain or fragment, UniProt Q8N264 717-748) [MBP-His-FilGAPC32 (717–748)]
binding [12]: no binding
